Reference: PMC4336329 (PLoS ONE, 2015)
About 14,000 (4.5%) of roughly 310,000 compounds showed an effect of 50% or more. The effect is printed as a negative number. The list shows a part of the results.

Molecular target: human ether-à-go-go-related gene (hERG) potassium channel (human, UniProt Q12809)
Experiment: primary screen, population patch clamp on CHO cells stably expressing hERG
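Further: peak tail current of the secondary pulse compared with the same well before compound.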

Sequence of human ether-à-go-go-related gene (hERG) potassium channel (Q12809 whole entry, looked up): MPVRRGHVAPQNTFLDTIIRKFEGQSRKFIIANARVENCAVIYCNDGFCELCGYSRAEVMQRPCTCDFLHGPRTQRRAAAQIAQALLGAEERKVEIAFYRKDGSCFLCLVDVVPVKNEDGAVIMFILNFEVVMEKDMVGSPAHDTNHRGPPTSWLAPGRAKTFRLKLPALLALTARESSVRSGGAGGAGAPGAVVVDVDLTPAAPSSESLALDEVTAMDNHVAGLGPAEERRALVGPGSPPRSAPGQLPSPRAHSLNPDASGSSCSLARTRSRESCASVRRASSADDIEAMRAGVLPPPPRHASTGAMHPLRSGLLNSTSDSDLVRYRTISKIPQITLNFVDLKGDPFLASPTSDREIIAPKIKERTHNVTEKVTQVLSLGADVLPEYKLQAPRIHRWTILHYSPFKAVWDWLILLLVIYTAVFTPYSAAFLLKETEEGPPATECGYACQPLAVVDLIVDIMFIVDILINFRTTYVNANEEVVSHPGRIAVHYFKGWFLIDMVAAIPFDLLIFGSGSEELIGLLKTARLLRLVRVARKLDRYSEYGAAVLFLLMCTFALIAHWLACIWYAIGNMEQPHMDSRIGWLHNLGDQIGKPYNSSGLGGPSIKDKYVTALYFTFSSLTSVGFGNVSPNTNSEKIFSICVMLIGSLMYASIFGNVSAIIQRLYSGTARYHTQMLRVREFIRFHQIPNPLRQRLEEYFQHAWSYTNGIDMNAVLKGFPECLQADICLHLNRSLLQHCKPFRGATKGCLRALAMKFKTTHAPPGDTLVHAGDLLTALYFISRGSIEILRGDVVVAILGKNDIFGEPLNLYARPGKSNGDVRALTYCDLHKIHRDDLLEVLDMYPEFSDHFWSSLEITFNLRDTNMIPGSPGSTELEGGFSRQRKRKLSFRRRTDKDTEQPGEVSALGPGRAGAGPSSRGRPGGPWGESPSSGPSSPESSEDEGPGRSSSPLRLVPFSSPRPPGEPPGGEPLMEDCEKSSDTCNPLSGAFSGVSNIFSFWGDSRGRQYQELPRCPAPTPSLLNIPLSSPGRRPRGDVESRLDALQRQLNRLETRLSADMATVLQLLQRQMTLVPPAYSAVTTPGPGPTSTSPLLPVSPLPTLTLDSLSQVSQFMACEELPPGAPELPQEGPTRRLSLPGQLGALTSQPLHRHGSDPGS

Structure (SMILES)	hERG current change (%, negative = inhibition) at 10uM
Nc1cc(=O)[nH]c(SCc2nnc(-c3ccccc3)o2)n1	9.97%
COc1ccc(CCNc2oc(-c3ccc(OC)c(OC)c3)nc2C#N)cc1	15.4%
CCC1(CC)C(=O)C2=C3C1[C@H](C(=O)OC)C=C(C(=O)OC)C[C@H]3[C@H]1C(=O)NC(=O)[C@H]1[C@H]2C (some centres unmarked)	3.57%
N#Cc1nc(Cc2ccccc2)oc1NCCCn1ccnc1	-31.5%
Cc1ccc(C(C(=O)Nc2ccc3c(c2)OCO3)N(C)C(=O)/C=C\c2ccc3c(c2)OCO3)cc1 (centres unmarked)	-1.83%
COc1ccccc1COC(=O)c1ccc(S(=O)(=O)N2CCOCC2)cc1	-6.12%
Cc1nn(C)cc1NC(=O)c1ccc(Br)o1	9.33%
CC(C)(C)C1CCC(=O)C(C2(O)C(=O)Nc3ccccc32)C1 (centres unmarked)	8.51%
C=CCn1c(Cc2csc(N)n2)nnc1SCC(=O)OCC	-0.614%
COc1ccc(Cl)cc1NC(=O)CN1C(=O)CC(C)S(=O)(=O)c2ccccc21 (centres unmarked)	-11.3%
NC(=O)C1CCN(C(=O)CCc2nc3sc4c(c3c(=O)[nH]2)CCCC4)CC1	-4.75%
Cc1cccc(NC(=S)NC2CC3CCC(C2)N3Cc2ccco2)c1 (centres unmarked)	-43.5%
Cc1ccc(NC(=O)c2ccccc2SCC(=O)N2CCCC2)cc1S(=O)(=O)N(C)C	-11.3%
Cc1ccc(N(C(=O)c2csnn2)C(C(=O)NC2CCCCC2)c2ccncc2)c(C)c1 (centres unmarked)	3.19%
O=C(O)c1ccc(-n2nnnc2Oc2cccc3cccnc23)cc1	11.6%
O=C(Nc1ccon1)c1sc2cc(Cl)ccc2c1Cl	16.3%
O=C1C2CC=C(Cl)CC2C(=O)N1CC1Cc2ccccc2CO1 (centres unmarked)	-0.878%
CCOCCCN(C(=O)CCC(=O)Nc1cc(C)on1)C(C(=O)NC(C)(C)CC)c1cccc(OC)c1OC (centres unmarked)	1.62%
Cc1nc2ccccc2c(C)c1C(=O)c1ccccc1.Cl	-3.87%

Structure (SMILES)	hERG current change (%, negative = inhibition) at 10uM
COc1ccc(CN2CC[C@H]3C=CC[C@@H](C(=O)N4CCOCC4)[C@H]3C2=O)cc1OC	7.75%
CCC1Oc2ccccc2N(CC(=O)NCCN2CCc3ccccc3C2)C1=O (centres unmarked)	-16.2%
COc1cc(C)c(C)cc1S(=O)(=O)N1CCCc2ccccc21	1.43%
CCC/C(=N/NC(=O)c1csc(C)c1C)c1ccc(Cl)s1	15.8%
CNC(=S)N/N=C(\C)c1ccc(Cl)s1	8.33%
NC(=O)Oc1cccc(OC(N)=O)c1	18%
CC/C(=N\NC(=S)Nc1ccccc1)c1c(O)[nH]c(=O)[nH]c1=O	19.4%
COc1ccc(-c2nc(CS(=O)(=O)CC(=O)NCCCN3CCOCC3)c(C)o2)cc1	-0.647%
CCC1CCc2c(n(C)c3ccccc3c2=O)O1 (centres unmarked)	6.88%
CN1CCN(CCc2nc3cc(NC(=O)c4ccco4)ccc3n2C)CC1	4.18%
Cc1ccc(Nc2nc(N)nc(CSc3nccn3C)n2)cc1	-14.2%
O=C(CN1CCN(S(=O)(=O)c2ccc(F)cc2)CC1)Nc1ccc(F)cc1F	-60.3%
COc1ccc(N(CC(=O)NC(C)(C)C)C(=O)c2ccco2)cc1	-2.06%
CN(C)/C=C/C(=O)c1ccncc1	16.3%
O=C1C(C=Nc2ccccc2O)=C(O)c2ccccc21	-1.8%
COc1ccc(NC(=S)NCCN2CCC(C)CC2)cc1Cl	-30.5%
CC1S/C(=N/N=C/c2ccco2)N(Cc2ccccc2)C1=O (centres unmarked)	-8.22%
O=C1NC2(CCCCC2)C(=O)N1/N=C/c1ccc(O)cc1O	-16.7%
CC(OC(=O)C1=COCCO1)C(=O)Nc1ccccc1C#N (centres unmarked)	12.4%

Structure (SMILES)	hERG current change (%, negative = inhibition) at 10uM
CC(NS(=O)(=O)c1ccccc1)C(=O)NCCc1ccccn1 (centres unmarked)	23.3%
Cc1sc(/N=C/c2c(O)ccc3ccccc23)c(C#N)c1C	29.9%
O=C(Nc1nnc(C2CC2)s1)c1cccc(S(=O)(=O)N2CC(c3ccccc3)CC2=O)c1 (centres unmarked)	3.34%
N#Cc1nc(-c2ccc(F)cc2)oc1NCCCn1ccnc1	-49.3%
COc1ccc(C(=O)CSc2nc3cccnc3n2C)cc1	10.5%
CC(=O)NCc1ccc(C(=O)COC(=O)COc2ccccc2)s1	10.8%
O=C(CCC(=O)OCC(=O)c1ccc(-c2ccccc2)cc1)Nc1cccc(Cl)c1	1.65%
CC(=O)Nc1ccc(OCC(O)Cn2c(CO)nc3ccccc32)cc1 (centres unmarked)	12.8%
c1ccc(-c2noc(COc3ccc4c(c3)OCO4)n2)cc1	13.9%
Nc1c(C(=O)Nc2ccccc2)c2nc3ccccc3nc2n1-c1ccc(O)cc1	12.5%
COc1ccccc1Cn1c(=S)[nH]c2cc(C(=O)NCc3cccnc3)ccc2c1=O	30%
COc1cccc(C(=O)OCC(=O)Nc2sc3c(c2C(N)=O)CCC3)c1O	11.8%
O=C1C(c2ccc(F)cc2)N(Cc2ccc3c(c2)OCO3)C(=O)CN1C1CCCCCC1 (centres unmarked)	-21.2%
COc1ccc(Oc2nc3ccccc3n(C)c2=O)cc1	-16.8%
CCC1(C)Cc2c(sc3nc(SCC(=O)c4ccccc4)[nH]c(=O)c23)CO1 (centres unmarked)	8.68%
CCc1cc(C(=O)OC)c(NC(=O)CC2Nc3cc(C)c(C)cc3NC2=O)s1 (centres unmarked)	19.3%
Cc1cc2ncn(C(=O)N3CCOCC3)c2cc1C	16.6%
C/C(=N\NC(=O)c1cc(-c2ccccn2)nc2ccccc12)c1cccc([N+](=O)[O-])c1	-4.8%
